This is one part of the list. Sequences were assembled here from the parent chain. Inactive controls read about 0.05.
B1: TEV protease; numbered along this chain (parent)
chain: MGESLFKGPRDYNPISSSICHLTNESDGHTTSLYGIGFGPFIITNKHLFRRNNGTLVVQSLHGVFKVKDTTTLQQHLVDGRDMIIIRMPKDFPPFPQKLKFREPQREERICLVTTNFQTKSMSSMVSDTSCTFPSGDGIFWKHWIQTKDGQCGSPLVSTRDGFIVGIHSASNFTNTNNYFTSVPKNFMELLTNQEAQQWVSGWRLNADSVLWGGHKVFMVKPEEPFQPVKEATQL

Variants of: B1
Assay: raw area under fraction-flipped curve 0-4 h after induction (AUC4h, not background-subtracted), DNA-recorder readout of cleavage of the substrate (dimensionless); higher = more cleavage of the substrate by the protease variant
Conditions: temperature: 34 °C; time window: 0-4 h after rhamnose induction
Description: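 In vivo DNA recorder in E. coli TOP10(DE3) ΔrhaA at 34 °C. Each TEVp single-site mutant (parent TEVp 0) is paired with a single-site variant of the 7-mer TEVs (canonical ENLYFQ|S). The substrate sits between flexible linkers in a Bxb1-sfGFP-TEVs-SsrA fusion, so cleavage stabilises Bxb1 and speeds flipping of a recombination array, read by NGS. The value is the raw area under the fraction-flipped curve over 0-4 h after rhamnose induction (AUC4h), with ≥20 reads per time point. It is not background-subtracted; inactive controls average about 0.047.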
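Also: Bxb1 expression induced with 0.2% (w/v) L-rhamnose at OD600 near 0.5, cultures sampled hourly, flipped fraction per protease–substrate barcode pair counted by paired-end Illumina sequencing.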

| Variant | area with substrate ENLAFQS | area with substrate ENLCFQS | area with substrate ENLDFQS | area with substrate ENLHFQS | area with substrate ENLIFQS | area with substrate ENLKFQS | area with substrate ENLMFQS | area with substrate ENLNFQS | area with substrate ENLPFQS | area with substrate ENLSFQS | area with substrate ENLVFQS | area with substrate ENLEFQS | area with substrate ENLLFQS | area with substrate ENLQFQS | area with substrate ENLRFQS | area with substrate ENLWFQS | area with substrate ENLFFQS | area with substrate ENLGFQS | area with substrate ENLTFQS |
| --- | --- | --- | --- | --- | --- | --- | --- | --- | --- | --- | --- | --- | --- | --- | --- | --- | --- | --- | --- |
| P89W | 0.0913 | 0.0602 | 0.0433 | 0.0348 | 0.0721 | 0.0717 | 0.0674 | 0.0457 | 0.0285 | 0.0479 | 0.0799 | – | – | – | – | – | – | – | – |
| Q227E | 0.0777 | 0.0616 | 0.0578 | – | – | 0.0407 | 0.0796 | 0.0502 | 0.0602 | 0.0562 | 0.0894 | 0.0653 | 0.0791 | 0.153 | 0.0544 | 0.0596 | – | – | – |
| T233D | 0.0659 | 0.0788 | 0.0582 | 0.0701 | 0.0886 | 0.0918 | 0.0868 | 0.0636 | 0.0654 | 0.0407 | 0.0954 | – | 0.0678 | 0.0402 | 0.0732 | 0.0714 | 0.0858 | 0.0603 | – |
| T55I | 0.0685 | 0.0648 | 0.064 | 0.0656 | – | 0.0753 | – | 0.0643 | – | 0.0692 | – | 0.0872 | 0.0709 | 0.0903 | 0.0703 | – | 0.0788 | – | 0.0682 |
| F140P | 0.0521 | 0.0603 | 0.0674 | 0.055 | – | 0.0615 | – | 0.0687 | 0.0591 | 0.0558 | 0.0463 | – | 0.0493 | 0.0906 | – | – | 0.0795 | – | – |
| P94Y | 0.0597 | 0.0646 | 0.067 | – | – | 0.0817 | – | 0.0802 | 0.0873 | 0.0346 | 0.0852 | – | – | 0.0409 | 0.0913 | 0.0517 | 0.0749 | – | – |
| Q118A | 0.0802 | – | 0.0574 | 0.0737 | 0.0825 | 0.0821 | – | 0.0645 | 0.0385 | – | 0.102 | – | – | 0.0235 | – | 0.0773 | 0.0855 | – | – |
| G213A | 0.0422 | – | 0.0694 | 0.0563 | – | 0.0616 | 0.0648 | 0.0681 | 0.0672 | 0.0546 | – | 0.0596 | 0.0674 | 0.0488 | 0.0582 | – | 0.0559 | – | – |
| V78A | 0.062 | – | 0.062 | 0.0454 | 0.073 | 0.0668 | 0.0747 | 0.0603 | – | 0.0737 | – | 0.0531 | 0.0394 | 0.0622 | 0.0522 | 0.0649 | 0.0556 | – | – |
| K46F | 0.0515 | 0.0563 | 0.0714 | – | 0.0634 | 0.0581 | – | – | – | 0.0518 | – | 0.0321 | 0.0631 | – | 0.0631 | 0.0528 | 0.0593 | – | – |
| S4V | 0.0715 | 0.0882 | 0.0671 | – | 0.104 | 0.0912 | – | 0.0585 | 0.0539 | 0.0659 | – | 0.0741 | 0.0767 | – | – | – | 0.0824 | – | 0.0813 |
| D149Q | 0.0669 | – | 0.0702 | – | 0.0767 | 0.0677 | – | 0.0772 | 0.0803 | 0.0629 | 0.072 | 0.0681 | – | – | 0.0684 | 0.0404 | 0.071 | – | 0.0629 |
| G39S | 0.0446 | – | 0.0503 | 0.0636 | – | 0.0486 | – | 0.0568 | 0.0345 | 0.0605 | – | 0.058 | 0.0455 | – | 0.0447 | – | 0.0443 | – | – |
| E3G | 0.0623 | 0.0612 | 0.0603 | 0.0615 | 0.0579 | 0.0657 | – | 0.0696 | 0.0382 | 0.0647 | 0.0775 | 0.0685 | – | – | 0.0749 | 0.0681 | 0.0753 | 0.0668 | 0.0819 |
| D11K | 0.0764 | – | 0.0657 | 0.0781 | 0.0688 | 0.0752 | – | 0.0516 | 0.0643 | 0.0554 | 0.086 | – | – | 0.0708 | 0.0738 | 0.0814 | 0.0945 | 0.073 | – |
| R204N | 0.0522 | 0.0718 | 0.0662 | 0.0676 | 0.0853 | 0.0838 | 0.0788 | 0.0622 | – | – | 0.0826 | – | 0.0807 | 0.071 | 0.0746 | 0.0685 | 0.0838 | – | – |
| T132F | 0.0536 | – | 0.0558 | – | 0.0646 | 0.0541 | – | 0.0162 | 0.0594 | 0.0629 | 0.0562 | – | 0.0625 | 0.0557 | – | 0.0697 | 0.0739 | – | – |
| R109P | 0.0668 | 0.0843 | 0.0521 | 0.0674 | 0.0833 | 0.072 | 0.0604 | 0.0668 | 0.0514 | 0.0695 | – | 0.0756 | 0.0743 | 0.0486 | 0.0787 | 0.0929 | 0.0858 | 0.0692 | 0.0735 |
| Y34C | 0.0634 | 0.0684 | 0.0607 | 0.0574 | – | 0.106 | – | 0.0607 | 0.0658 | 0.0736 | 0.0938 | – | 0.0669 | – | – | 0.108 | 0.0746 | – | – |
| S60V | 0.0592 | 0.0879 | 0.0654 | 0.0567 | 0.0729 | 0.0376 | 0.0745 | 0.0648 | 0.0689 | 0.034 | 0.0811 | 0.0597 | 0.0477 | – | 0.0645 | 0.0623 | 0.0732 | 0.0514 | – |
| L33V | 0.0653 | – | – | 0.0613 | 0.078 | 0.0758 | 0.0542 | 0.0794 | 0.0596 | 0.0535 | – | – | 0.0578 | – | 0.0828 | 0.0634 | 0.0864 | – | – |
| K46E | 0.0484 | 0.0723 | 0.0135 | 0.0626 | 0.063 | 0.0569 | 0.0536 | 0.0573 | 0.0692 | 0.0261 | – | 0.0524 | 0.0542 | 0.0559 | – | 0.0417 | 0.06 | – | 0.0598 |
| S60F | 0.0602 | 0.0924 | 0.0424 | – | 0.0743 | 0.0156 | 0.0637 | 0.0516 | 0.0673 | 0.0643 | 0.0855 | 0.0616 | – | 0.0778 | – | 0.0665 | 0.115 | – | – |
| L191T | 0.0742 | – | 0.0552 | 0.0537 | – | 0.0646 | 0.0498 | 0.0472 | 0.0468 | 0.0739 | – | 0.0547 | 0.0677 | 0.058 | – | – | 0.0798 | 0.0598 | – |
| H29Q | 0.0672 | – | 0.068 | 0.0822 | – | 0.0561 | 0.057 | 0.0669 | – | 0.0486 | – | 0.0699 | – | – | 0.0608 | 0.0674 | 0.0831 | – | 0.0582 |
| T192Y | 0.0601 | – | – | 0.0535 | – | 0.0741 | – | – | 0.046 | 0.0685 | – | – | – | – | 0.0685 | – | – | – | – |

From the supplement of paper PMC12217912
